Source: the RNAGym collection of RNA variant scans (doi:10.7554/elife.90254)
Read counts are not given, so values of variants with three or more changes are uncertain.

B1: LINE1-mini (parent)
chain: GGCAGAGCUCAACACAGCGUGGCAAAGUGGCUGUGGCUAGACUGCC

Variants of: B1
Assay: self-cleavage, relative activity (ratio to wild type); higher = more cleavage; in vitro, sequencing; the parent is a self-cleaving ribozyme

**Q.** With GGGAGUGCUCAACACAGCGUGGCAAAGUGGCUGUGGAUAGCCUGCC [C3G A6U C37A A41C] as the variant, how does the self-cleavage read?
**A.** Its self-cleavage is 0.03.

**Q.** Which self-cleavage does the source give for GGCAGAGAUCAACACAGCGGGGCAAAGUGGCAGUGGCUAGACUGCC [C8A U20G U32A] here?
**A.** The self-cleavage was 0.09.

**Q.** For GGCAGAGCUCAACACAGCGUCGCAAAGUGCCUGUGGCUAGACCGCC [G21C G30C U43C], which self-cleavage is on record?
**A.** The self-cleavage was 0.13.

**Q.** Which self-cleavage does the source give for GGAGGAGCUCAACACAGCGUGGCAAAGUGGCUGUGUCUAGACUGCC [C3A A4G G36U] here?
**A.** The self-cleavage was 0.15.

**Q.** For GGCAGAGCUAAACACAGCGUGGCAAAGUGUCUGUGGGUAGACUGUC [C10A G30U C37G C45U], which self-cleavage is on record?
**A.** Its self-cleavage is 0.

**Q.** Which self-cleavage does the source give for GCCAGAGCUCAACACAGCGAGGUAAAGUGGCUGUGCCGAGACUGGC [G2C U20A C23U G36C U38G C45G] here?
**A.** Its self-cleavage is 0.01.

**Q.** Which self-cleavage does the source give for GGCAGCGCUCAACACAGCGUGGCAAAGUGACUGUGGCUAGAUUCCC [A6C G30A C42U G44C] here?
**A.** The self-cleavage was 0.04.

**Q.** For GGCAGUGCUCAACACAGUGUGGCAAAGUGGCUGUGGCUAGACUGGC [A6U C18U C45G], which self-cleavage is on record?
**A.** The self-cleavage was 0.08.

**Q.** Which self-cleavage does the source give for GGCAGAGUUCAACACAGCUUGGCAAAGUGGCUGUGGCUAGACUGCU [C8U G19U C46U] here?
**A.** Its self-cleavage is 0.09.

**Q.** For GGCAGAGCUCAACACAGCGAGGCAAAGUCGCUGUGGUUAGACUGCC [U20A G29C C37U], which self-cleavage is on record?
**A.** The self-cleavage was 0.01.

**Q.** With UGCAGAGCUCAACACUACGUGGCAAAGUGGCUGUGGCUAUACUGCC [G1U A16U G17A G40U] as the variant, how does the self-cleavage read?
**A.** Its self-cleavage is 0.06.

**Q.** With CGCAGAGCUCAAUACAGCGUGGCAAAGUGGCUGUGGAUAGACUGCC [G1C C13U C37A] as the variant, how does the self-cleavage read?
**A.** The self-cleavage was 0.06.

**Q.** Which self-cleavage does the source give for GGCAGAGCUCAACACAGCCUGGCAAAGUGGUUGUGGCUAGACUACC [G19C C31U G44A] here?
**A.** Its self-cleavage is 0.03.

**Q.** With GGCAGAGCUCAACACAGCGUGGCAAAGUCGCCGUGGCUCGACUGCC [G29C U32C A39C] as the variant, how does the self-cleavage read?
**A.** The self-cleavage was 0.17.

**Q.** Which self-cleavage does the source give for GGGAGAGCUCGACACAGCGUGGCAAAGUGGCUGUGUCUAGACUGCC [C3G A11G G36U] here?
**A.** Its self-cleavage is 0.03.

**Q.** Which self-cleavage does the source give for GGCAGUGCUCAACACAGCGUGGCUAAGUGGCUGUGGCUAGACUGUC [A6U A24U C45U] here?
**A.** Its self-cleavage is 0.48.

**Q.** Which self-cleavage does the source give for GGCAUAGCUCAACACAGCGUGACAAAGUGGCUGUUGCUAGACUGCC [G5U G22A G35U] here?
**A.** Its self-cleavage is 0.07.

**Q.** For GGCAGAGCGCAACACAGCGUGGUAAAGUGGCUGUGGCUGGACUGCC [U9G C23U A39G], which self-cleavage is on record?
**A.** Its self-cleavage is 0.04.

**Q.** Which self-cleavage does the source give for GGCAGAGCUCACCACAGCGUGGCAAAGUAAGUGUGGCUAGACUGCC [A12C G29A G30A C31G] here?
**A.** Its self-cleavage is 0.01.

**Q.** With GGCAGAGCUCAACACAGCGUGGCAAAGUGGCUCUGUCUAAACUGCC [G33C G36U G40A] as the variant, how does the self-cleavage read?
**A.** The self-cleavage was 0.02.

**Q.** For GGCAUAGCUCAACACAGCGUGGCAAAGCGGCUCUGGCUAGACUGCC [G5U U28C G33C], which self-cleavage is on record?
**A.** The self-cleavage was 0.01.

**Q.** With GGGAGAACUCAACACAGCGUGGCAGAGUGGCUGUGGCUAGACUGCC [C3G G7A A25G] as the variant, how does the self-cleavage read?
**A.** The self-cleavage was 0.17.

**Q.** With GACAGCGCUCAACACGGUGUGGCAAAGUGGCUGUGGCUAGACUGCC [G2A A6C A16G C18U] as the variant, how does the self-cleavage read?
**A.** The self-cleavage was 0.11.

**Q.** With GGCAGAGCUCAACAUAGCGUGCCAAAGGGGCUGUGGCUAAACUGCC [C15U G22C U28G G40A] as the variant, how does the self-cleavage read?
**A.** Its self-cleavage is 0.1.

**Q.** With GGCAGAGCUCGACACAGCGUGGCAAAGUGGCGGUGGCUAUACUGCC [A11G U32G G40U] as the variant, how does the self-cleavage read?
**A.** Its self-cleavage is 0.04.

**Q.** With GGCAGAGCUAACUACAGCGUGGCAAAGUGGCUGUGGAUAGACUGCC [C10A A12C C13U C37A] as the variant, how does the self-cleavage read?
**A.** The self-cleavage was 0.02.

**Q.** With GGCAGAGCUCAACAUAGCGUGGCACAGUGUCUAUGGCUAGACUGCC [C15U A25C G30U G33A] as the variant, how does the self-cleavage read?
**A.** The self-cleavage was 0.06.

**Q.** With GGCAGUGCUCAACACAGCGUGGCAAAGUGGCUGUGGCUAGACAGCU [A6U U43A C46U] as the variant, how does the self-cleavage read?
**A.** The self-cleavage was 0.4.

**Q.** With GUCAUAGCUCAACCCAGCGUGGCAAAGUGGCUGUGGCUAGACUCCC [G2U G5U A14C G44C] as the variant, how does the self-cleavage read?
**A.** The self-cleavage was 0.02.

**Q.** For GGUAGAGCUCAGCACAACGUGGCAAAGUGCCUGUGACUAGACUGAC [C3U A12G G17A G30C G36A C45A], which self-cleavage is on record?
**A.** Its self-cleavage is 0.01.

**Q.** Which self-cleavage does the source give for GGCAGAGCUCAACAAAGUGUGGCAAACUGGCUUUGUCUAUACUGCC [C15A C18U G27C G33U G36U G40U] here?
**A.** Its self-cleavage is 0.06.

**Q.** With GGCAUAGCUCAACACAGCGUGGCAAAGUGGCUGUGGCUAGAAUGCU [G5U C42A C46U] as the variant, how does the self-cleavage read?
**A.** Its self-cleavage is 0.14.

**Q.** With CGCAGAGGUCAACACAGCGUGGCAAAGUGGCUGUGGCUAUACUGCC [G1C C8G G40U] as the variant, how does the self-cleavage read?
**A.** Its self-cleavage is 0.03.

**Q.** Which self-cleavage does the source give for UGCAGAGCUCAACACAGCUUGGCAAAGGGGCUGUGGAGAGACUGCC [G1U G19U U28G C37A U38G] here?
**A.** The self-cleavage was 0.01.

**Q.** For AGCAGAGCUCAACACAGCGUGGCAAAGUGGCUGUGUCUAGACUGCU [G1A G36U C46U], which self-cleavage is on record?
**A.** Its self-cleavage is 0.07.

**Q.** With CGCAGAGCUCAACACAGAGUGGCAAAGUGGCUGUGGCUAGACUUCA [G1C C18A G44U C46A] as the variant, how does the self-cleavage read?
**A.** The self-cleavage was 0.02.

**Q.** With GGCAGAACUAAUCACAUCGUGGCAAAGUGGCUGUUGCUAGACUGCA [G7A C10A A12U G17U G35U C46A] as the variant, how does the self-cleavage read?
**A.** Its self-cleavage is 0.05.

**Q.** For GGCAGAGCUGAACCCAGCGUGGCAAAGUAACUGUGGCUAGACUGCC [C10G A14C G29A G30A], which self-cleavage is on record?
**A.** Its self-cleavage is 0.01.

**Q.** With GGCCGAGCUCAACAAAGCGUGGAAAAGUGGCUGUGACCAGACUGCC [A4C C15A C23A G36A U38C] as the variant, how does the self-cleavage read?
**A.** Its self-cleavage is 0.61.

**Q.** For GGCAGAGCUCAAUACAGCGUGGCACAGUGGCUGUGGCCAAACUGCC [C13U A25C U38C G40A], which self-cleavage is on record?
**A.** The self-cleavage was 0.03.

**Q.** Which self-cleavage does the source give for GGCAGAGCUUAACACAGCGUGGUAAAGUGGCUGUGGAUUGACUGCC [C10U C23U C37A A39U] here?
**A.** Its self-cleavage is 0.01.

**Q.** With GCCAGAGCUCAACACAGCGUGGCAAAGUGGCUGUGAGUAGACUGCC [G2C G36A C37G] as the variant, how does the self-cleavage read?
**A.** The self-cleavage was 0.02.

**Q.** For GGCAGAGCUCAACACAGCGUGGCAAAAGGGCUGUGGCUAGACUGCU [G27A U28G C46U], which self-cleavage is on record?
**A.** The self-cleavage was 0.83.

**Q.** For GACAGAGCUCAACACAGCAUGGCAAAGUGGCUGUGUCUAGACUGCC [G2A G19A G36U], which self-cleavage is on record?
**A.** The self-cleavage was 0.17.

**Q.** For GGCAAAGCUCAACACUGCGUGGUAAAGUGGCUAUGGCUAGACUGCC [G5A A16U C23U G33A], which self-cleavage is on record?
**A.** Its self-cleavage is 0.04.

**Q.** For UGCAGAGCGCAAUACAGCGUGGUAAAGUGGCUGUGGCGAGACUGCC [G1U U9G C13U C23U U38G], which self-cleavage is on record?
**A.** Its self-cleavage is 0.01.

**Q.** Which self-cleavage does the source give for GGCAGAACUCAACACGGCGUAGCAAAGCGGCAGUGGCUAGACUGCC [G7A A16G G21A U28C U32A] here?
**A.** Its self-cleavage is 0.13.

**Q.** Which self-cleavage does the source give for GGCAGAGCACAACACAUCGUGACAAAGUGGCUGUGGCUAAACUGCU [U9A G17U G22A G40A C46U] here?
**A.** Its self-cleavage is 0.01.

**Q.** Which self-cleavage does the source give for GACAGAGCUCAACACAGCGUGUCAAAGUGGCUGUGGCUAGACAGCC [G2A G22U U43A] here?
**A.** Its self-cleavage is 0.22.

**Q.** With GGCAUAGCUCAACAUAGCGUGGCAAAGUGGCUGUGACUAGACUGCC [G5U C15U G36A] as the variant, how does the self-cleavage read?
**A.** The self-cleavage was 0.15.

**Q.** Which self-cleavage does the source give for GGCAGAGCUAAACAAAGCGUGGGAAAGUGGUUGUGGCUAGACUGCC [C10A C15A C23G C31U] here?
**A.** Its self-cleavage is 0.

**Q.** Which self-cleavage does the source give for GGCAAAGCUCAACACAGCGUGGAAAAGUGGCUGUGGCUAGAUUGCC [G5A C23A C42U] here?
**A.** The self-cleavage was 2.49.

**Q.** Which self-cleavage does the source give for GGCAGAGCUCAACACAGCGUGACAAAGUGGCUGUGUUUAGACUGCC [G22A G36U C37U] here?
**A.** The self-cleavage was 0.

**Q.** With GGAAGAGCUCUAGACAGCGUGGCAAAGUGGCUCUGGCUAGACACCC [C3A A11U C13G G33C U43A G44C] as the variant, how does the self-cleavage read?
**A.** Its self-cleavage is 0.01.

**Q.** For GGCAGAGCUCAACCCAGCGUGGCAAAGUGGAUGUGGCUUGACUGCC [A14C C31A A39U], which self-cleavage is on record?
**A.** The self-cleavage was 0.

**Q.** For GGCAGAACUCAACACAGCGUGGCAAAGUGGCUGUGGCAAGGCUGCC [G7A U38A A41G], which self-cleavage is on record?
**A.** Its self-cleavage is 0.03.
